Experimental data reported in article PMC4336329 (PLoS ONE, 2015).
Screen size: about 310,000 compounds; about 14,000 (4.5%) showed an effect of 50% or more. Effects have a minus sign here. The list shows a part of the results.

Target: human ether-à-go-go-related gene (hERG) potassium channel (human, UniProt Q12809)
Assay: primary screen, population patch clamp on CHO cells stably expressing hERG
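Also: peak tail current of the secondary pulse compared with the same well before compound.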

human ether-à-go-go-related gene (hERG) potassium channel, sequence (Q12809 whole entry, looked up): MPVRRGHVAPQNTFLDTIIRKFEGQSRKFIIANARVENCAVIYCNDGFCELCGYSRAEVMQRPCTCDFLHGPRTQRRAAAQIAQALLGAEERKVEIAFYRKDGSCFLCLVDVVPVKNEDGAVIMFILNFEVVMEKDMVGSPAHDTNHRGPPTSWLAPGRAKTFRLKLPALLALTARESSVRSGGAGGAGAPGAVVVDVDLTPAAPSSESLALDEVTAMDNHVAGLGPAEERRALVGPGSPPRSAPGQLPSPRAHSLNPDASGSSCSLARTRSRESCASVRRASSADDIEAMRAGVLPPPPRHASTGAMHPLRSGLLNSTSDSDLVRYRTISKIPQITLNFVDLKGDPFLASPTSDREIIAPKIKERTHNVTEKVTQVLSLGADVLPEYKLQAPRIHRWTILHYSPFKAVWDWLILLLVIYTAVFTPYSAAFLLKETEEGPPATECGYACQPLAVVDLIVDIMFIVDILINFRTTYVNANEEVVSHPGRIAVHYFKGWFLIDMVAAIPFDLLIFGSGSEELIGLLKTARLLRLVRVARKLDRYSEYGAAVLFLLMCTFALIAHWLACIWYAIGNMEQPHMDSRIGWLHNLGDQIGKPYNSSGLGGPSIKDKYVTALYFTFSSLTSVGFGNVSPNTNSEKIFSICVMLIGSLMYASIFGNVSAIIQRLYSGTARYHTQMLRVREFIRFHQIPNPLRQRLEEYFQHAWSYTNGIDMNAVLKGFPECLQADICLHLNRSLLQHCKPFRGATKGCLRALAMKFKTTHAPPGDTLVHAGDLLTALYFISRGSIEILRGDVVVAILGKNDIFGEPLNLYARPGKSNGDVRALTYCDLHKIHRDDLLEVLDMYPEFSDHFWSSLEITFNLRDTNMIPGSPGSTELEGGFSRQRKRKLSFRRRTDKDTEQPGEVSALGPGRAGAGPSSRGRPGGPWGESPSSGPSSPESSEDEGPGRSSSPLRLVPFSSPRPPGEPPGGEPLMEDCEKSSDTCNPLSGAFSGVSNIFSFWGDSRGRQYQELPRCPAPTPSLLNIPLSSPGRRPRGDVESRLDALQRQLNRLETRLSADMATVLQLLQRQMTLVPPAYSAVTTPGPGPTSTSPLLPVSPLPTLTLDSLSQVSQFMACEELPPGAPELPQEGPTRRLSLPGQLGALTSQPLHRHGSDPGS

Structure (SMILES)	hERG current change (%, negative = inhibition) at 10uM [%]
Cc1cc(C)c(S(=O)(=O)NCC(=O)O)cc1C	7.17
COC(=O)C1=C(c2ccc(C(C)=O)cc2)C[C@@H]2CC[C@H]1N2C(=O)NC1CC1	19.8
CCC(=O)Nc1c(-c2ccc3ccccc3c2)nc2ccccn12	-16
COc1ccc(C2=Nn3c([n+](C)c4ccccc43)SC2)cc1.[Br-]	-44.2
CNC(=O)CSc1nnc(-c2cccnc2)n1CCc1ccccc1	14.1
COc1cccc(C(C)NC(=S)NCc2ccc(F)cc2)c1 (centres unmarked)	-9.88
CS(=O)(=O)N(CC(=O)N1CCCC1)c1cccc(Cl)c1Cl	-2.02
CC(C)C(=O)N1CCN(CCN=Cc2c(O)n(C)c(=O)n(C)c2=O)CC1	-7.85
COc1ccc(Cl)cc1NC(=O)CCc1nc(-c2ccccc2F)no1	9.34
COc1ccc(-c2noc(CN(C)Cc3ccc(C)o3)n2)cc1	-12.2
O=C(O)c1ccccc1Nc1cc(Cl)c2nonc2c1[N+](=O)[O-]	20.4
CC(C)c1ccc(NC(=O)CN2C(=O)NC3(CCCC3)C2=O)cc1	5.63
COc1ccc(OCCCC(=O)N2CCCc3ccccc32)cc1	-18.9
Cc1ccsc1C1CC(=O)Nc2ccccc2S1 (centres unmarked)	-3.68
CCCCN(C(=O)Nc1ccc(OCC)cc1)C1CCN(C(C)=O)CC1	-22.2
COc1ccc2[nH]c3c(NCCN(C(C)C)C(C)C)ncnc3c2c1	-70.7
CN(C)c1nc2ncn(Cc3ccccc3)c2c(=O)[nH]1	-2.7
Nc1cc(S(=O)(=O)O)cc([N+](=O)[O-])c1O	19.7
CCN1CCN(C(=O)/C=C/c2ccc3c(c2)OCO3)CC1	2.46
CCN(CC(=O)Nc1c(F)cccc1F)C(=O)CSCC(=O)Nc1cc(C)on1	-2.51
NCC(=O)NNC(=O)OCC1c2ccccc2-c2ccccc21	10.3
COc1cccc(NC(=O)COC(=O)Cc2ccccc2[N+](=O)[O-])c1	6.48

Structure (SMILES)	hERG current change (%, negative = inhibition) at 10uM [%]
COc1ccc2c(=O)c3c(=O)n(Cc4ccco4)c(-c4ccco4)nc3oc2c1	-62.4
Cc1ccccc1/C=C1\C(=O)Nc2ccc(F)cc21	8.41
COC(=O)C(C)n1nnc2sc(-c3ccccc3)cc2c1=O (centres unmarked)	-27.2
Cc1cc(C)n(C(=O)c2ccc(NC(=O)CC(C)C)cc2)n1	-8.44
Oc1ccc2ccccc2c1/C=N/c1nc2c(s1)CCCC2	13.2
Cc1ccc(S(=O)(=O)c2nc(NCCCn3ccnc3)sc2Cl)cc1	-78.6
COc1ccccc1C(=O)Nc1ccccc1N1CCN(C(=O)c2ccc(Cl)cc2)CC1	-82.1
COc1ccc(CCNC(=O)CN(c2ccccc2)S(C)(=O)=O)cc1	27
O=c1c2c3c(sc2ncn1/N=C/c1ccc([N+](=O)[O-])o1)CCCC3	12.1
CNC(=O)c1ccc(Nc2nnc(-c3ccc(C)c(S(=O)(=O)NCC4CCCO4)c3)c3ccccc23)cc1 (centres unmarked)	-1.83
CN(C)c1ccc(P(=O)(OCc2ccccc2)C(O)c2ccc(Cl)cc2)cc1 (centres unmarked)	9.96
O=c1[nH]c(=O)c2nc(-c3ccc(Cl)cc3)cnc2[nH]1	22.3
O=[N+]([O-])c1ccc(/C=C2\CCC(C3=CCCC3)=C2N2CCOCC2)cc1	-33.7
O=C(Nc1cc(S(=O)(=O)N2CCOCC2)ccc1N1CCCCC1)c1cc(-c2ccccn2)nc2ccccc12	0.703
Cc1sc2nc(CSC(C)C(=O)N(C)CC(=O)Nc3ccccc3C(F)(F)F)[nH]c(=O)c2c1C (centres unmarked)	-3.02
COc1cc(-c2nnc(SCc3cc(=O)oc4cc(C)ccc34)o2)cc(OC)c1OC	1.52
COc1ccc(-c2csc(Cc3nnc4n3CCCCC4)n2)cc1	-21.8
O=C(N/N=C/c1cc([N+](=O)[O-])ccc1Cl)c1cc(-c2ccccc2)nc2ccccc12	7.64
COc1ccc(C(CC(=O)N2CCCC(C)C2)c2c(OC)cc(OC)c3ccc(=O)oc23)cc1 (centres unmarked)	-1.32
COc1ccc(N2CCN(CC(=O)c3ccccc3)CC2)cc1	11
O=C(CNc1ccc(F)cc1)N/N=C/C1CC=CCC1 (centres unmarked)	2.89
FC(F)(F)Oc1ccc(NC(=S)NCCCN2CCOCC2)cc1	-20.5

Structure (SMILES)	hERG current change (%, negative = inhibition) at 10uM [%]
CC[C@H](C)[C@@H]1NC(=O)c2cc([N+](=O)[O-])cc(F)c2OCC[C@@H](C(N)=O)NC(=O)[C@H](CCCCN)NC1=O	2.93
CCN(CCO)c1ccc(-n2c(N)c(C(=O)OC)c3nc4ccccc4nc32)cc1	-9.18
O=C(O)c1cccc(-c2ccc(/C=N/Nc3ccc([N+](=O)[O-])cc3)o2)c1	8.16
O=C(OCC(=O)N1CCCC1)c1c[nH]c2ccccc12	0.459
Cc1ccc(-c2nc3ccc(C)cn3c2CC(=O)N(C)C)cc1.O=C(O)C(O)C(O)C(=O)O	-21.6
O=[N+]([O-])c1cccnc1Sc1ccccc1Cl	14.6
Cc1ccc(C)c(Nc2cc(C(=O)NCc3cccnc3)c3ccccc3n2)c1	-21.7
CN1C(c2ccccc2)CC(=NO)CC1c1ccccc1 (centres unmarked)	12.4
COc1ccc(/C=C2\SC(N3CCc4ccccc4C3)=NC2=O)cc1OC	1.66
Cc1cc(C)cc(Oc2c(C(F)(F)F)oc3cc(OCC(=O)O)ccc3c2=O)c1	4.25
O=C1c2ccc([N+](=O)[O-])cc2C(=O)N1CNc1ccccn1	18.5
Cc1nnc(SCC(=O)Nc2ccc(S(=O)(=O)N3CCCCC3)cc2)s1	6.42
c1ccc2c(c1)ncn2-c1ncnc2sc3c(c12)CCCC3	-27.2
CCOc1cc2[nH]c(=O)n(CCC(=O)NCCc3ccccc3)c(=O)c2cc1OCC	-2.33
CCCN(CC(=O)Nc1ccccc1OC)C(=O)CCC(=O)c1ccc(Cl)s1	-39.4
Oc1ccccc1/C=N/NP(=S)(c1ccccc1)c1ccccc1	28.7
Cc1ccc([N+](=O)[O-])cc1NC(=S)NC(=O)c1ccco1	0.675
Cn1c(=O)c(=O)n(C)c2cc(S(=O)(=O)Nc3ccc4c(c3)OCCO4)ccc21	20.3
CCOc1cc(-c2cc(N)n[nH]2)cc(OCC)c1OCC	14.6
CCCCCN(C(=O)NC(=O)Nc1cccc(C)c1C)S(C)(=O)=O	12.4
CN1CCN(c2ccc(S(=O)(=O)Nc3ccccc3)cc2[N+](=O)[O-])CC1	-4.26
CC1CCN2c3nc4ccccn4c(=O)c3CC3(C(=O)N(C)C(=O)N(C)C3=O)C2C1 (centres unmarked)	8.47

Structure (SMILES)	hERG current change (%, negative = inhibition) at 10uM [%]
O=C(CSCC(=O)N1CCOCC1)Nc1nc(-c2ccc3c(c2)OCO3)cs1	-19.4
COc1ccc(CCC(=O)NCc2cccc(C(F)(F)F)c2)cc1	0.407
O=C(NC1CCN(Cc2ccccc2)CC1)C1CCN(S(=O)(=O)c2ccc(Cl)cc2)CC1	-73.2
O=c1c(-c2ccccc2)c(-c2ccccc2)oc2cc(O)cc(O)c12	2.56
Cc1ccc(-c2ccnc3c(Cl)c(C)nn23)cc1	16.7
CC(C)CC(=O)Nc1ccc(S(=O)(=O)NCc2ccco2)cc1	-7.54
COc1cc(C(=O)NNC(=O)c2n[nH]c3ccccc23)cc(OC)c1OC	-12.6
Cc1ccc(-n2ncc3c2CCCC3NC(=O)c2cnccn2)cc1C (centres unmarked)	4.61
Cc1c(Cl)cccc1NC(=O)CSc1nncn1-c1cccnc1	20.2
CCC(=O)NC(NC(=S)Nc1cccc2cccnc12)C(Cl)(Cl)Cl (centres unmarked)	-5.91
O=C(Nc1nc(-c2ccco2)c(-c2ccco2)s1)c1c(F)cccc1Cl	-8.52
CC(=O)Nc1ccc(S(=O)(=O)N2CCN(Cc3ccccc3[N+](=O)[O-])CC2)cc1	14.8
O=S(=O)(NCc1cccnc1)c1ccc(Cl)c(Cl)c1	-10.9
CN(Cc1ccccc1)C(=O)COC(=O)c1cncc(Br)c1	-8.11
Cc1ccc(NC(=O)CCCC(=O)O)c(Br)c1	12
O=C(CSc1ccccc1)Nc1nc2ccccc2[nH]1	-1.15
COc1ccccc1NC(=O)c1ccc(S(=O)(=O)NCc2ccco2)cc1	-2.21
COCCNC(=O)c1onc(CSc2cccc(OC)c2)c1C(=O)O	4.46
COc1ccc(CC(=O)OC(C)CN2CCOCC2)cc1 (centres unmarked)	13.4
Cc1cccc(COC(=O)Nc2ccc(NC(=O)c3ccccc3Cl)cc2)c1	18.6
